Measured values: PubChem BioAssay AID624417 (National Center for Advancing Translational Sciences (NCATS), 2012)
Screen size: about 410,000 compounds; about 6,400 (1.6%) were called active. The inconclusive results got no clear call from the source; some entries with a clear call stand among them for comparison. Calls come from the whole dose curve; as a rule, active = well fitted inhibition curve with a large enough effect; inconclusive = small, poorly fitted or top-dose-only effect; inactive = no such curve, though single readings can be large or run the other way. Potencies beside an inconclusive call are fits to weak or partial responses and may not hold up.

target: Glucagon-like peptide 1 receptor (Homo sapiens) (UniProt P43220); test: qHTS of GLP-1 Receptor Inverse Agonists (Inhibition Mode); settings: HEK293 GLP-1R CRE-luciferase, luminescence, 24 h, GLP-1R form is constitutively active; series mostly up to 38.3 µM; note: nearly all actives have a fitted effect of over 55% in size
How it was run: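 Cells are plated, allowed 12 hours at 37 deg C, then treated with compounds for 24 hr before luciferase detection reagent is added and luminescence is read after 12 min at room temperature. The HEK293 line carries constitutively active GLP-1R with a cAMP-responsive reporter.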
Potency is the fitted concentration of half-maximal effect; tags give direction and shape of the fitted curve.

Sequence of UniProt P43220 (P43220 whole entry, looked up): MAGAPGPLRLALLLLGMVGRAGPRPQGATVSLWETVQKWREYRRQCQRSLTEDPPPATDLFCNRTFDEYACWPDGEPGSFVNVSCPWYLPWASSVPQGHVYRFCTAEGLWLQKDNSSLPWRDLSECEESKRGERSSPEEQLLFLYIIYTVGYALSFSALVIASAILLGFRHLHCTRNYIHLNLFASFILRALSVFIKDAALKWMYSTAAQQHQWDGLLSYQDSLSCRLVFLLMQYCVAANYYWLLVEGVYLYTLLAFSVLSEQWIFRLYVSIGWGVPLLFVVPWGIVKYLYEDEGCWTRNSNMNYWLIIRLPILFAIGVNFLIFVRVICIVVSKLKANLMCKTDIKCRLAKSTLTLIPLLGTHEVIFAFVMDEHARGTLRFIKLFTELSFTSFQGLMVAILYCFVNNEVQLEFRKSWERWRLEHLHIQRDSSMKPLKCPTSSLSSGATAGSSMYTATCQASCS

Potency, active:
Cc1nc2ccc(NC(=O)c3cccc(S(=O)(=O)N(C)c4ccccc4)c3)cc2s1 5.62 µM

Potency, inactive:
Cc1ccccc1OCC(=O)Nc1ccc2c(c1)Cc1ccccc1-2
COc1cccc(-c2nnc(SCC(=O)NCc3ccc4c(c3)OCO4)n2Cc2ccco2)c1
COc1ccc(C(=O)COc2ccccc2C#N)cc1
N=c1c(S(=O)(=O)c2ccccc2)cc2c(=O)n3ccccc3nc2n1Cc1ccco1
O=[N+]([O-])c1ccc(/C=N/Nc2ccnc3cc(Cl)ccc23)o1
CCCCCCN1C[C@H](n2cc(-c3ccc(F)cc3)nn2)[C@@H](O)C[C@@H]1c1ccc(C)cc1

Potency, inconclusive:
Cc1ccc(NC(=O)c2oc3ccccc3c2NC(=O)c2ccccc2C)cc1 2 µM [inhibitor, partial curve, poor fit]
Cc1c(C(=O)NCC(c2ccco2)N2CCCC2)oc2ccc(Cl)cc12 (stereo not drawn) 10 µM [inhibitor, partial curve, poor fit]
CCc1nccn1CCC(=O)N1CCCC(N2CCN(c3cccc(Cl)c3)CC2)C1 (stereo not drawn) 11.2 µM [inhibitor, partial curve, poor fit]
Cc1ccc(NC(=O)CNC(=O)c2ccc(C(C)(C)C)cc2)cc1S(=O)(=O)N1CCOCC1 11.2 µM [inhibitor, partial curve, poor fit]
COc1ccc(Nc2nc(N)c(C(=O)c3ccc(F)cc3)s2)cc1 12.6 µM [inhibitor, partial curve, poor fit]
COc1cccc2c(=O)cc(C)n(CC(=O)Nc3cccc(C)c3)c12 11.2 µM [inhibitor, single point]
CC(/C=N/NC(=O)c1nnn(-c2nonc2N)c1CN1CCCCC1)=C\c1ccccc1 2.24 µM [inhibitor, full curve, poor fit]
C=CCn1cc(C(=O)NCCCN(CC)CC)c(=O)c2cc(S(=O)(=O)N3CCC(C)CC3)ccc21 10 µM [inhibitor, partial curve, poor fit]
Cc1cc(Br)c(NC(=O)CN(C)CCOc2ccccc2)c(Br)c1 31.6 µM [inhibitor, partial curve, poor fit]
COc1ccccc1C(=O)C1CCCN(C(=O)c2ccc(Cl)cc2)C1 (stereo not drawn) 7.08 µM [inhibitor, partial curve, poor fit]
COc1ccccc1N(C)S(=O)(=O)c1ccc(C(=O)OCC(=O)N(C(C)C)C(C)C)cc1 31.6 µM [inhibitor, partial curve, poor fit]
O=C(c1ccc([N+](=O)[O-])cc1)N1CCOC12CCN(c1ncc(C(F)(F)F)cc1Cl)CC2 0.794 µM [inhibitor, full curve, poor fit]
CCc1ccc(CN(Cc2cn[nH]c2-c2ccc(OC)cc2)C(=O)Nc2ccc(C)c(F)c2)cc1 20 µM [inhibitor, single point]
CC1CCN(CCCNC(=O)c2cc(Sc3ccc(F)cc3)nc3ccccc23)CC1 28.2 µM [inhibitor, single point]
CCN(CC)CCNC(=O)c1ccc(NC(=O)c2ccc3c(c2)CCC3)cc1 11.2 µM [inhibitor, partial curve, poor fit]
O=C(Nc1ccccc1C(=O)N1CCCC1)c1ncoc1-c1cccc(Cl)c1 28.2 µM [inhibitor, single point]
CC1(C(=O)NS(=O)(=O)c2ccccc2Cl)CCN1C(=O)c1ccccc1 (stereo not drawn) 12.6 µM [inhibitor, single point]
Cc1cc(C)cc(SCc2noc(C(=O)NCCCN3CCOCC3)c2C(=O)NCCCN2CCOCC2)c1 22.4 µM [inhibitor, single point]
N#Cc1cn(CC(=O)NCCc2c[nH]c3ccccc23)c2ccccc12 10 µM [inhibitor, partial curve, poor fit]
Cc1ccc(N(CC(O)CN2CCOCC2)S(=O)(=O)c2ccc3ccccc3c2)cc1 (stereo not drawn) 28.2 µM [inhibitor, single point]
CC(=O)c1cc(CN2CCC(C(=O)Nc3cccc(-c4cscn4)c3)CC2)cs1 28.2 µM [inhibitor, single point]
COc1ccc(N2CCN(CCCNC(=O)C(=O)c3c[nH]c4ccccc34)CC2)cc1 22.4 µM [inhibitor, partial curve, poor fit]
CCc1ccc(NC(=O)CCc2ccc(C)o2)cc1 3.55 µM [inhibitor, full curve]
O=C1OCCN1C(=O)[C@H]1[C@H](c2ccc(F)cc2)C(c2ccc(F)cc2)=NN1c1ccccc1 12.6 µM [inhibitor, single point]
Cc1nn(CC(=O)NNC(=O)c2ccccc2F)c([N+](=O)[O-])c1Br 0.501 µM [inhibitor, full curve, poor fit]
CCOC(=O)C1(Cc2ccccc2C(F)(F)F)CCN(C(C)CCn2cccn2)CC1 (stereo not drawn) 14.1 µM [inhibitor, partial curve, poor fit]
C=CC(=O)NCCCc1cc(C(C)(C)C)c(O)c(C(C)(C)C)c1 8.91 µM [inhibitor, partial curve, poor fit]
O=C(/C=C\c1ccccc1)Oc1cccc2cccnc12 2.24 µM [inhibitor, full curve, poor fit]
c1ccc(CCN2CN=C(Nc3nc4ccccc4o3)NC2)cc1 11.2 µM [inhibitor, partial curve, poor fit]
O=C(COc1ccccc1)N1CCN=C1SCc1cccc(F)c1 11.2 µM [inhibitor, partial curve, poor fit]
COc1ccc(-n2nnc3c(SCC(=O)NCc4ccco4)ncnc32)cc1 31.6 µM [inhibitor, partial curve, poor fit]
